In data set [1] the test system is alpha-1-acid-glycoprotein (AGP). As to the kind of experiment: Protein binding on Chiralpak AGP HPLC column. Particulars: pH 7.4, Chiralpak AGP. As to the method:
(§1) The measurement of the biomimetic properties of the available drugs was conducted in our laboratories. Generic gradient HPLC methods were used to determine the chromatographic hydrophobicity Index (CHI) using mobile phases at three different pH values. The protein binding of the compounds was measured using immobilised human serum albumin (HSA), and alpha-1-acid-glycoprotein (AGP) stationary phases. The phospholipid-binding was measured using the immobilised artificial membrane (IAM) stationary phase. The aim was to establish relationships between the cardiotoxicity potential and the biomimetic binding properties of the drugs and to evaluate their predictive performance.

Data set [2] is described as follows: Phospholipid binding at pH 7.4 on IAM PC.DD2 HPLC column. It counts as physicochemical. Further details: key: approximates acetonitrile concentration (%) in mobile phase at elution. The procedure: The phospholipid-binding was measured using an IAM PC.DD2 column with dimensions of 100 x 4.6 mm (Regis Technologies Inc., Morton Grove, IL, USA). The gradient retention times were measured using a 50 mM ammonium acetate mobile phase with the pH adjusted to 7.4. The mobile phase flow rate was 1.5 mL/min. […] The cycle time was 6 min, plus an additional 1 min equilibration time was applied while the injector prepared for the next injection. The gradient retention times were calibrated with the acetophenone homologues for which the CHI IAM values have been established using isocratic measurements. […] The CHI Index on the IAM column (CHI IAM) approximates the acetonitrile concentration in the mobile phase when the compound elutes. […] The CHI IAM values have been converted to log k IAM values derived from the CHI IAM values using equation 1. It represents the equivalent value derived from several isocratic measurements with extrapolated log retention factors to 100 % aqueous mobile phase. The log k IAM values can be converted to log K (IAM) values and show linear relationships with the octanol/water partition coefficients.

In data set [3] the target is human serum albumin (HSA) (Homo sapiens, UniProt P02768). As to the kind of experiment: Protein binding on Chiralpak HSA HPLC column. Particulars: pH 7.4, Chiralpak HSA. As to the method: as §1

SMILES strings stand for the structures.

Regarding `CC(C)NCC(O)COc1ccc(CC(N)=O)cc1` (stereo not shown) [Atenolol], the “log k AGP” value in data set [1] is -1.83. For `O=C(O)COCCN1CCN(C(c2ccccc2)c2ccc(Cl)cc2)CC1` (stereo not shown) [Cetirizine], in data set [2], the “CHI IAM” value is reported as 40.56. For the compound `O=C(O)c1cn(C2CC2)c2cc(N3CCNCC3)c(F)cc2c1=O` [Ciprofloxacin], the “log k HSA” value in data set [3] is listed as -0.54. Besides, in data set [1], the “log k AGP” value was -1.19. For the same compound, the “CHI IAM” value in data set [2] is recorded as 25.39. In the same order, the values of `CN(C)CCOC(c1ccccc1)c1ccccc1` [Diphenhydramine] are 0.33, 0.60 and 35.63. As to `CCN(CC)CC(=O)Nc1c(C)cccc1C` [Lidocaine], in data set [1], the “log k AGP” value came to 0.17. On the same count and under the same terms, the same measure for `CCOC(=O)N1CCC(=C2c3ccc(Cl)cc3CCc3cccnc32)CC1` [Loratadine]: 1.34. As to `Cc1cc(NS(=O)(=O)c2ccc(N)cc2)no1` [Sulfamethoxazole], the “log k HSA” value in data set [3] came out at 0.4. Besides, the “log k AGP” value in data set [1] was -1.57. For the same compound, the “CHI IAM” value in data set [2] was 13.19.
